{"source": "paper PMC4336329", "about": "(PLoS ONE, 2015)", "note": "Out of some 310,000 compounds screened, about 14,000 (4.5%) showed an effect of 50% or more. The effect is printed as a negative number. The list shows a part of the results.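 Also: peak tail current of the secondary pulse compared with the same well before compound.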"}
{"target": "human ether-à-go-go-related gene (hERG) potassium channel (human, UniProt Q12809)", "sequence (Q12809 whole entry, looked up)": "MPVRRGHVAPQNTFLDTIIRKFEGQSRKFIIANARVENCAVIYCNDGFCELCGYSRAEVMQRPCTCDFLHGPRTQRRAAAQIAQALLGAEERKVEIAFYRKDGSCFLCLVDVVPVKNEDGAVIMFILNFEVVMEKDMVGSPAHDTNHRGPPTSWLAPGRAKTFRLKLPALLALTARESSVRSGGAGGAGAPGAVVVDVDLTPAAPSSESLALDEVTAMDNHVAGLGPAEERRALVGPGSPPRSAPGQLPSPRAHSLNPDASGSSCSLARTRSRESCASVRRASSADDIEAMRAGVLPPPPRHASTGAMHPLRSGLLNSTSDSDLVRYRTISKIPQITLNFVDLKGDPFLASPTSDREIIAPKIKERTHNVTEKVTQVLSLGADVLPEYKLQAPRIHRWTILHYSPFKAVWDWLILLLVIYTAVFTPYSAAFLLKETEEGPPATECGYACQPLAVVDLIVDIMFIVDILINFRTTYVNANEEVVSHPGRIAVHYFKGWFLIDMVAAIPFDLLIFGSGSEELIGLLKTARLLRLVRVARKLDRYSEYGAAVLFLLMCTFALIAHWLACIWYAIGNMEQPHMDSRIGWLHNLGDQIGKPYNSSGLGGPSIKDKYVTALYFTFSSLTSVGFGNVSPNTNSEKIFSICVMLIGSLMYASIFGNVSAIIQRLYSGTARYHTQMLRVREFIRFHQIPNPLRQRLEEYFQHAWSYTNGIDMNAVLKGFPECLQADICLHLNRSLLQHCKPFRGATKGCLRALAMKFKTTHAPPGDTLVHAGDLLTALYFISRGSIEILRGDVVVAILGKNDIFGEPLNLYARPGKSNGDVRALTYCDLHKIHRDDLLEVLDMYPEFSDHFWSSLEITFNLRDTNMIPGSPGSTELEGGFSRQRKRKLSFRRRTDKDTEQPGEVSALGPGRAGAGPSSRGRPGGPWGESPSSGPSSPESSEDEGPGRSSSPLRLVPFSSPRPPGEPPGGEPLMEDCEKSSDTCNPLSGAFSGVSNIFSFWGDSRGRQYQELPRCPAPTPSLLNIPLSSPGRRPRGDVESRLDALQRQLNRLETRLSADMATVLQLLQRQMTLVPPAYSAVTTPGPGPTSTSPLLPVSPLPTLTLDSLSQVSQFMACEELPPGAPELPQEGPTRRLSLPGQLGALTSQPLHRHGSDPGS", "experiment": "primary screen, population patch clamp on CHO cells stably expressing hERG", "units": {"hERG current change (%, negative = inhibition) at 10uM": "%"}}
{"smiles": "O=C1NCCN1Cc1ccc(Cl)cc1", "hERG current change (%, negative = inhibition) at 10uM": 11.1}
{"smiles": "CCCCCCCNC(=O)C1(CC2CC(c3ccc(Cl)cc3)=NO2)CCN(C(=O)C2(C)CC2)CC1", "note": "(stereo not shown)", "hERG current change (%, negative = inhibition) at 10uM": -55.8}
{"smiles": "Cc1oc(C2CC2)cc1C(=O)O", "hERG current change (%, negative = inhibition) at 10uM": -9.52}
{"smiles": "CC(=O)c1cnc2c(-c3ccc(Cl)cc3)c(C)nn2c1C", "hERG current change (%, negative = inhibition) at 10uM": -1.58}
{"smiles": "O=C(CNC(=O)c1ccccc1)NCC1COc2ccccc2O1", "note": "(stereo not shown)", "hERG current change (%, negative = inhibition) at 10uM": 3.74}
{"smiles": "CCCn1c(N)c(N(CCOC)C(=O)c2ccc(-c3ccccc3)cc2)c(=O)[nH]c1=O", "hERG current change (%, negative = inhibition) at 10uM": 7.06}
{"smiles": "N#Cc1ccc(C(=O)NCC(c2ccco2)N2CCCC2)cc1", "note": "(stereo not shown)", "hERG current change (%, negative = inhibition) at 10uM": -20.3}
{"smiles": "O=C(c1ccco1)N1CCN(C(=O)C2(S(=O)(=O)c3ccc(Cl)cc3)CC2)CC1", "hERG current change (%, negative = inhibition) at 10uM": -34}
{"smiles": "NC(=S)NNc1ccc(Cl)c(Cl)c1", "hERG current change (%, negative = inhibition) at 10uM": 16.3}
{"smiles": "Cc1cc(NC(=O)C2CCN(S(=O)(=O)Cc3ccccc3)CC2)ccc1-n1cnnn1", "hERG current change (%, negative = inhibition) at 10uM": -9.11}
{"smiles": "O=C(O)C1C2C=CC(O2)C1C(=O)NCCCn1ccnc1", "note": "(stereo not shown)", "hERG current change (%, negative = inhibition) at 10uM": 7.11}
{"smiles": "Cc1cc(N/N=C/c2ccccc2F)nc(NCc2ccccc2)n1", "hERG current change (%, negative = inhibition) at 10uM": 14.4}
{"smiles": "COc1cc(-c2nnc(SCC(=O)/C(C#N)=C(\\C)N)o2)cc(OC)c1OC", "hERG current change (%, negative = inhibition) at 10uM": -4.13}
{"smiles": "O=C(CNC(=O)C1COc2ccccc2O1)N/N=C/c1ccc([N+](=O)[O-])cc1", "note": "(stereo not shown)", "hERG current change (%, negative = inhibition) at 10uM": -71.8}
{"smiles": "CCCCCn1c(=O)c(Cc2ccccc2)c(O)c2ccccc21", "hERG current change (%, negative = inhibition) at 10uM": -13.3}
{"smiles": "CCCCn1c(CCc2ccccc2)nc2cc3[nH]c(=O)c(C(C)C)nc3cc21", "hERG current change (%, negative = inhibition) at 10uM": 12}
{"smiles": "COc1ccc(NC(=O)C(NC(C)=O)C(=O)NCc2ccc(F)cc2)cc1", "note": "(stereo not shown)", "hERG current change (%, negative = inhibition) at 10uM": 10}
{"smiles": "CC(NC(=O)/C(C#N)=C/c1cccs1)c1ccccc1", "note": "(stereo not shown)", "hERG current change (%, negative = inhibition) at 10uM": -10.2}
{"smiles": "CC(C)CCNc1ncnc2c1nnn2Cc1ccccc1", "hERG current change (%, negative = inhibition) at 10uM": 0.724}
{"smiles": "O=[N+]([O-])c1cccc(-c2n[nH]c(=S)n2-c2ccccc2)c1", "hERG current change (%, negative = inhibition) at 10uM": 22.3}
{"smiles": "O=c1[nH]c(SCc2nc3ccccc3c(=O)n2-c2ccccc2)nc2ccccc12", "hERG current change (%, negative = inhibition) at 10uM": -2.13}
{"smiles": "CSc1cccc(NC(=S)N(CCCN2CCC(C)CC2)Cc2cccs2)c1", "hERG current change (%, negative = inhibition) at 10uM": -72.9}
{"smiles": "O=C(/C=C/c1ccc([N+](=O)[O-])cc1)Oc1ccc(/C=N/NC(=O)c2ccncc2)cc1", "hERG current change (%, negative = inhibition) at 10uM": 12.1}
{"smiles": "COc1ccc(C(=O)N2CCc3ccccc32)cc1", "hERG current change (%, negative = inhibition) at 10uM": 2.71}
{"smiles": "Cc1cc(-c2nnc(SCCC(=O)Nc3ccccc3)o2)no1", "hERG current change (%, negative = inhibition) at 10uM": 10.6}
